This passage reports cytotoxicity call and growth inhibition call results from the antibiotic and cytotoxicity screens of Wong et al. (2023).

One experiment deals with HSkMC. In words: cytotoxicity call (relative viability < 0.9). The note with it: 10 µM.
For a further experiment, the system named is HepG2. In words: cytotoxicity call (relative viability < 0.9). The following applies: 10 µM.
The subject of the next experiment is S. aureus RN4220. The experiment is described as follows: growth inhibition call (relative growth <= 0.2). The note with it: 50 µM.

The list shows a part of the results.

On to `C[C@H](CO)N1C[C@H](C)[C@H](CN(C)S(=O)(=O)c2ccc(Cl)cc2)OCCCC[C@H](C)Oc2ccc(NC(=O)Nc3ccccc3)cc2C1=O`, for which the cytotoxicity call in the experiment with HSkMC and with HepG2 was “inactive” throughout. Besides, the growth inhibition call with S. aureus RN4220 was “inactive”.

For `COc1ccc([Si](C)(C)[C@H]2[C@H](CCOC(=O)NCCCCCC(=O)NO)O[C@@]3(C(=O)N(Cc4ccccc4)c4ccc(I)cc43)[C@@H]2C)cc1`, the cytotoxicity call in the experiment with HSkMC and in the experiment with HepG2 was “inactive” in each case. Also, the growth inhibition call in the experiment with S. aureus RN4220 was “inactive”.

Take `C[C@H](CO)N1C[C@H](C)[C@H](CN(C)C(=O)C2CCCCC2)OCCCC[C@H](C)Oc2ccc(NC(=O)Nc3ccc(F)cc3)cc2C1=O`: the cytotoxicity call in the experiment on HSkMC and in the experiment on HepG2 was “inactive” in each case. Moreover, the growth inhibition call in the experiment with S. aureus RN4220 is “inactive”.

Take `C=C1C(=O)N(OCC)c2ccccc2[NH+]1[O-]` (stereo not drawn): the cytotoxicity call in the experiment on HSkMC and in the experiment on HepG2 was “inactive” in each case. The growth inhibition call with S. aureus RN4220 was “inactive”.

On to `CO[C@@H]1CN(C)C(=O)c2cc(NC(=O)c3nc4ccccc4s3)ccc2OC[C@@H](C)N(Cc2ccccc2)C[C@H]1C`, for which the cytotoxicity call in the experiment with HSkMC and with HepG2 was “inactive” throughout. In addition, the growth inhibition call in the experiment with S. aureus RN4220 is “inactive”.

As for `Cc1ccc(-c2ccc3c(c2)O[C@@H](CN(C)Cc2cncnc2)[C@@H](C)CN([C@H](C)CO)S3(=O)=O)cc1`, the cytotoxicity call in the experiment with HSkMC and in the experiment on HepG2 was “inactive” throughout. In addition, in the experiment on S. aureus RN4220, the growth inhibition call is “inactive”.

Regarding `CCCc1cc(C)[nH]c(=O)c1CNC(=O)c1cc(-c2ccc(N3CCN(C(C)C)CC3)nc2)cc2c1cnn2C(C)C`, in the experiment on HSkMC, the cytotoxicity call was “inactive”. Also, the cytotoxicity call with HepG2 was “active”. The growth inhibition call in the experiment with S. aureus RN4220 is “inactive”.

As to `Clc1ccccc1C(c1ccccc1)(c1ccccc1)n1ccnc1`, the cytotoxicity call with HSkMC was “active”. In addition, the cytotoxicity call in the experiment with HepG2 was “inactive”. For the same compound, the growth inhibition call in the experiment with S. aureus RN4220 was “inactive”.

On to `C[C@@H]1CN([C@@H](C)CO)C(=O)Cc2cc(NC(=O)Nc3cccc4ccccc34)ccc2O[C@H]1CN(C)Cc1ccc(Oc2ccccc2)cc1`, for which the cytotoxicity call with HSkMC and in the experiment on HepG2 was “inactive” throughout. For the same compound, in the experiment with S. aureus RN4220, the growth inhibition call is “inactive”.

As to `C[C@@H]1CN([C@H](C)CO)C(=O)c2cccc(NS(=O)(=O)c3cn(C)cn3)c2O[C@H]1CN(C)S(=O)(=O)c1ccccc1`, the cytotoxicity call in the experiment on HSkMC and in the experiment on HepG2 was “inactive” in each case. Further, the growth inhibition call with S. aureus RN4220 was “inactive”.

Regarding `COc1ccc(CCNC(=O)[C@@]2(Sc3ccc(C)cc3)CC(=O)N(Cc3cc(C(F)(F)F)cc(C(F)(F)F)c3)[C@@H]2c2ccc(CO)cc2I)cc1`, the cytotoxicity call in the experiment with HSkMC and in the experiment with HepG2 was “inactive” each time. In addition, the growth inhibition call in the experiment with S. aureus RN4220 is “inactive”.

In the case of `C[C@H]1COC(=O)[C@@H](Cc2ccc(F)cc2)CC=CC[C@@H](CC(=O)N(CCO)Cc2ccccc2)C(=O)N1`, the cytotoxicity call in the experiment with HSkMC and in the experiment on HepG2 was “inactive” in each case. Further, in the experiment on S. aureus RN4220, the growth inhibition call was “inactive”.

In the case of `C[C@H](CO)N1C[C@H](C)[C@H](CN(C)C(=O)CN2CCOCC2)Oc2ncc(-c3cncnc3)cc2C1=O`, the cytotoxicity call in the experiment with HSkMC and in the experiment on HepG2 was “inactive” each time. Moreover, in the experiment with S. aureus RN4220, the growth inhibition call is “inactive”.

As for `COc1ccc(S(=O)(=O)Nc2ccc3c(c2)C(=O)N([C@@H](C)CO)C[C@H](C)[C@H](CN(C)S(=O)(=O)c2ccc(F)cc2)O3)cc1`, the cytotoxicity call in the experiment with HSkMC and in the experiment on HepG2 was “inactive” throughout. In the experiment on S. aureus RN4220, the growth inhibition call was “inactive”.

Take `Cn1cnc(S(=O)(=O)N[C@@H]2C=C[C@H](CC(=O)NCC3CC3)O[C@@H]2CO)c1`: the cytotoxicity call with HSkMC and in the experiment on HepG2 was “inactive” throughout. The growth inhibition call in the experiment on S. aureus RN4220 was “inactive”.

On to `O=C1OCC=C[C@H]2O[C@@]34C=CCN(c5ccc6ccccc6c5)C(=O)[C@H]3N(CCCCCO)C(=O)[C@@H]4[C@@H]12`, for which the cytotoxicity call in the experiment on HSkMC and in the experiment with HepG2 was “inactive” throughout. In addition, the growth inhibition call in the experiment with S. aureus RN4220 was “inactive”.

Regarding `CCCC#Cc1cnc2c(c1)C(=O)N([C@@H](C)CO)C[C@H](C)[C@@H](CN(C)S(=O)(=O)c1cn(C)cn1)O2`, the cytotoxicity call in the experiment on HSkMC and in the experiment on HepG2 was “inactive” throughout. The growth inhibition call in the experiment on S. aureus RN4220 is “inactive”.

For the compound `C[C@H](CO)N1C[C@H](C)[C@@H](CN(C)Cc2ccc(Cl)c(Cl)c2)Oc2ccc(NC(=O)NC3CCCCC3)cc2CC1=O`, the cytotoxicity call with HSkMC and with HepG2 was “inactive” each time. For the same compound, the growth inhibition call with S. aureus RN4220 is “inactive”.

Regarding `C[C@@H]1CCCCO[C@@H](CN(C)C(=O)Nc2ccccc2)[C@H](C)CN([C@H](C)CO)C(=O)c2cc(NC(=O)Cc3ccccc3)ccc2O1`, the cytotoxicity call in the experiment with HSkMC and with HepG2 was “inactive” throughout. In the experiment on S. aureus RN4220, the growth inhibition call is “inactive”.

With `C[C@H](CO)N1C[C@H](C)[C@@H](CN(C)S(=O)(=O)c2ccccc2)OCCCC[C@H](C)Oc2ccc(NC(=O)Nc3cccc4ccccc34)cc2C1=O`, the cytotoxicity call in the experiment with HSkMC and in the experiment with HepG2 was “inactive” throughout. Besides, the growth inhibition call in the experiment with S. aureus RN4220 is “inactive”.

With `C[C@H]1CN([C@@H](C)CO)C(=O)c2cc(NS(=O)(=O)c3cn(C)cn3)ccc2O[C@@H]1CN(C)Cc1ccc2c(c1)OCO2`, the cytotoxicity call in the experiment with HSkMC and in the experiment on HepG2 was “inactive” throughout. The growth inhibition call in the experiment with S. aureus RN4220 is “inactive”.

For `C[C@H]1CN([C@@H](C)CO)C(=O)c2cc(NC(=O)Cn3cnnn3)ccc2O[C@H]1CN(C)Cc1ccncc1`, the cytotoxicity call with HSkMC and in the experiment on HepG2 was “inactive” in each case. The growth inhibition call in the experiment on S. aureus RN4220 is “inactive”.

As to `Cc1cc(C(=O)Nc2cccc3c2O[C@@H](CN(C)S(=O)(=O)c2ccccc2)[C@H](C)CN([C@@H](C)CO)C3=O)n(C)n1`, the cytotoxicity call in the experiment with HSkMC and with HepG2 was “inactive” each time. Also, the growth inhibition call with S. aureus RN4220 is “inactive”.

Consider `CC(=O)C1CCC2C3CC=C4CC(OC(=O)CCC(=O)O)CCC4(C)C3CCC12C` (stereo not drawn), for which the cytotoxicity call in the experiment with HSkMC and with HepG2 was “inactive” in each case. The growth inhibition call with S. aureus RN4220 was “inactive”.

As to `CO[C@@H]1CN(C)C(=O)c2cc(NS(=O)(=O)c3cn(C)cn3)ccc2OC[C@H](C)N(CCC(F)(F)F)C[C@H]1C`, the cytotoxicity call in the experiment on HSkMC (human skeletal muscle cells) and in the experiment on HepG2 was “inactive” each time. Moreover, the growth inhibition call with S. aureus RN4220 is “inactive”.

In the case of `C[C@@H]1CCCCO[C@@H](CN(C)C(=O)Nc2ccc3c(c2)OCO3)[C@@H](C)CN([C@H](C)CO)C(=O)c2cc(NC(=O)c3ccccc3)ccc2O1`, the cytotoxicity call in the experiment with HSkMC and in the experiment with HepG2 was “inactive” in each case. In the experiment on S. aureus RN4220, the growth inhibition call is “inactive”.
